# In PubChem BioAssay AID1347120 (National Center for Advancing Translational Sciences (NCATS), 2019):
# About 930 (0.24%) of roughly 390,000 compounds were called active. Inconclusive results, whose numbers are uncertain, are shown with a selection of clear calls. Calls follow the shape of the dose curve; as a rule, active = well fitted activation curve with a large enough effect; inconclusive = small, poorly fitted or top-dose-only effect; inactive = no such curve, though single readings can be large or run the other way. Potencies beside an inconclusive call are fits to weak or partial responses and may not hold up.
# Experiment: qHTS for Suppressors of FUS Proteinopathy: Primary screen using FUS-linked yeast assay; also: nearly all actives have a fitted effect of over 55% in size;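 as to growth rescue (activation): plate controls were DMSO vehicle for no effect and reference control for full effect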
# Conditions: S. cerevisiae FUS-expressing, OD600, 24 h; Potency: growth rescue; growth rescue (activation): at 76.6 µM (top of the series)
# In short: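 Quantitative HTS measuring growth restoration of FUS-toxic yeast. Galactose-induced cells (OD 0.005) were exposed 24hr at 30C to compounds at several concentrations, then absorbance at 600 nm was recorded.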
# Potency is read from the fitted curve at half-maximal effect; tags tell the direction and shape of the fitted curve.
Structure (SMILES),Potency,growth rescue (activation)
COc1cc2c(cc1OC)C(C(=O)Nc1ccc3c(c1)OCCO3)C1c3ccccc3CCN1C2=O (configuration not stated),"inconclusive: 31.6 µM [activator, single point]",
CCOC(=O)c1ccc(NC(=O)Cn2nnc(-c3ccc(F)cc3)n2)cc1,"inconclusive: 4.47 µM [activator, full curve, poor fit]",
CC(C)(C)OC(=O)N1CCC2(CC1)C(C#N)=C(N)OC1=C2C(=O)CCC1,"inconclusive: 2 µM [activator, full curve, poor fit]",
CN1C(=O)/C(=C/c2ccco2)SC1=Nc1cccc(C(=O)O)c1,"inconclusive: 12.6 µM [activator, partial curve]",
COc1ccc(-c2cc(C(F)(F)F)nc(-n3cc(Cl)cn3)n2)cc1,,inconclusive: 70.1% [activator]
O=C(Nc1ccc(Cl)cc1)N1CCC(c2nc(-c3ccccc3Cl)no2)CC1,,inactive: 26.8%
Cn1cnc(S(=O)(=O)N2CCCC(C(=O)Nc3ccc(OC(F)(F)F)cc3)C2)c1 (configuration not stated),,inactive: 8.02%
O=C(Nc1ccc(C2=NCCN2)cc1)c1ccc(C(=O)Nc2ccc(C3=NCCN3)cc2)c([N+](=O)[O-])c1,,inactive: 19.4%
O=C(OC12CCCN(C1)/C(=C/c1ccc(Cl)cc1)C2)C1CCCCC1 (configuration not stated),,inactive: -14.4%
CC(=O)N1c2cc(S(=O)(=O)N3CCN(c4ccccc4F)CC3)c(Br)cc2CC1C (configuration not stated),"inconclusive: 15.8 µM [activator, partial curve, poor fit]",
Cc1ccc(S(=O)(=O)c2nc(-c3cccc(Cl)c3)oc2NCc2ccccc2)cc1,,inactive: 24.8%
O=C(c1cccc(COc2cccc3ccccc23)c1)N1CCCC1,"inconclusive: 31.6 µM [activator, single point]",
Cc1ccc2nc(SCC(=O)c3ccccc3)nc(=O)n2c1,"inconclusive: 5.62 µM [activator, single point]",
CCc1cccc(NC(=O)C2CCN(S(=O)(=O)c3cccc(-c4noc(C)n4)c3)CC2)c1,"inconclusive: 35.5 µM [activator, single point]",
O=C1c2ccc(Cl)cc2S(=O)(=O)c2cccc(C(=O)N3CCN(c4ccc(Cl)cn4)CC3)c21,"inconclusive: 31.6 µM [activator, single point]",
Cc1cc2cc3c(cc2nc1SCC(=O)O)OCCO3,,inactive: 19%
O=C(COC(=O)c1ccc(Cl)c(S(=O)(=O)N2CCCCCC2)c1)Nc1ccccc1,"inconclusive: 11.2 µM [activator, partial curve]",
CC(C)(C)c1ccc(CC(=O)N2CCC2(C)C(=O)Nc2cnc3ccccc3c2)cc1 (configuration not stated),"inconclusive: 35.5 µM [activator, single point]",
CC(C)(C)NC(=O)CSc1nncn1NCc1cccc2ccccc12,,inactive: 5.81%
COc1ccc(CNC(=O)C(C)n2c(=O)cc(C)c3c(C)nn(-c4ccccc4)c32)cc1 (configuration not stated),,inactive: -30.6%
C=CC[C@@H](Cc1ccc(F)cc1)C(=O)OC[C@@H]1CCCN1C(=O)[C@@H](CC=C)CC(=O)N[C@@H](CO)Cc1ccccc1,"inconclusive: 25.1 µM [activator, partial curve, poor fit]",

Structure (SMILES),Potency,growth rescue (activation)
COc1cc(C(C(=O)NC2CCCC2)N(C(=O)c2snc(C(N)=O)c2N)c2ccccc2)cc(OC)c1OC (configuration not stated),"inconclusive: 39.8 µM [activator, single point]",
Cc1cc(C(=O)CSc2nc3ccc(Cl)cc3[nH]2)c(C)n1Cc1ccco1,"inconclusive: 11.2 µM [activator, single point]",
CC1CCN(S(=O)(=O)c2cc(C(=O)N3CCN(c4ccccc4F)CC3)n(C)c2)CC1,"inconclusive: 50.1 µM [activator, single point]",
CC(C)c1ccc(CN(C(=O)C2COc3ccccc3O2)C2CCS(=O)(=O)C2)cc1 (configuration not stated),"inconclusive: 44.7 µM [activator, partial curve, poor fit]",
Cc1cc(Br)cc(/C=N/NC(=O)c2ccc3c(c2)OCO3)c1O,,inactive: -2.65%
O=C(c1ccccc1C(=O)N1CCN(c2ccc(F)cc2)CC1)N1CCN(c2ccc(F)cc2)CC1,"inconclusive: 31.6 µM [activator, single point]",
O=C1c2cc3c(cc2CCC1c1ccc2c(c1)OCO2)OCO3 (configuration not stated),,inactive: 9.88%
CCN(c1ccccc1)S(=O)(=O)c1cc(C(=O)OC(C)C(=O)Nc2ccc3c(c2)OCCO3)ccc1C (configuration not stated),active: 17.8 µM,
CCCCC[C@H](C)N1C[C@H](COCc2ccccc2)Oc2cc(N3CC[C@H](N(C)C)C3)ccc2S1(=O)=O,"inconclusive: 12.6 µM [activator, partial curve, poor fit]",
CCC(=O)NC(C)C(c1cccs1)N1CCOCC1 (configuration not stated),"inconclusive: 3.98 µM [activator, full curve, poor fit]",
CCc1ccc(C(=O)OCC(=O)c2c(N)n(CC(C)C)c(=O)n(C)c2=O)cc1,"inconclusive: 25.1 µM [activator, partial curve, poor fit]",
CN(c1ncc(C(F)(F)F)cc1Cl)n1cc(C(N)=O)c2ccccc2c1=O,"inconclusive: 28.2 µM [activator, partial curve, poor fit]",
COc1cc(C(=O)N(Cc2ccccc2)c2cccc(C)c2)ccc1OCC(=O)N1CCOCC1,"inconclusive: 11.2 µM [activator, partial curve]",
CN(C)/C=C/C(=O)c1cnc(-c2ccccn2)s1,"inconclusive: 50.1 µM [activator, single point]",
COC(=O)c1ccc(Nc2cc(C)nc(-c3ccccc3O)n2)cc1,,inactive: 4.15%
COc1ccc(C2=CC(=O)C[C@H](c3ccc(F)cc3)C2)c(F)c1F,"inconclusive: 28.2 µM [activator, partial curve, poor fit]",
CCN1C[C@@H]2[C@@H]3C(=O)N(C)C(=O)[C@@H]3[C@](Cc3ccccc3)(C1=O)N2C(=O)c1ccc(Cl)c(Cl)c1,"inconclusive: 11.2 µM [activator, partial curve]",
COc1ccc(NC(=O)c2cc3c(s2)CCC3)cc1S(=O)(=O)N1CCOCC1,"inconclusive: 17.8 µM [activator, partial curve, poor fit]",
CC(C)N(C(=O)[C@H]1C[C@H](CC(=O)NCc2ccco2)C(=O)N2CCc3c([nH]c4ccc(Cl)cc34)[C@]12C)C(C)C,"inconclusive: 28.2 µM [activator, single point]",
C/C=C/C(=O)OCC(=O)Nc1ccc(OC)c(Cl)c1,,inactive: 12.7%
CCNc1nc(Oc2ccc(C(=O)OC)cc2)nc(N(C)C)n1,,inactive: -12%

Structure (SMILES),Potency,growth rescue (activation)
Cc1ccc(C)c(S(=O)(=O)N2CCN(C(=O)CCC(=O)NCc3ccc(Cl)cc3Cl)CC2)c1,"inconclusive: 28.2 µM [activator, single point]",
COc1ccccc1C(=O)NCC(=O)OCC(=O)N(CC(C)C)c1c(N)n(Cc2ccccc2)c(=O)[nH]c1=O,"inconclusive: 28.2 µM [activator, single point]",
CCOc1ccccc1C1C(C#N)=C(N)Oc2cc(N)ccc21 (configuration not stated),"inconclusive: 50.1 µM [activator, single point]",
CCCCn1c(N)c(N(CC(C)C)C(=O)c2cccc(S(=O)(=O)N3CCCCC3)c2)c(=O)[nH]c1=O,"inconclusive: 39.8 µM [activator, single point]",
CCOC(=O)N1CCC(n2c(SCC(=O)NCCC3=CCCCC3)nc3ccccc3c2=O)CC1,"inconclusive: 39.8 µM [activator, single point]",
COc1cccc(CNC(=O)c2oc3c(c2C)-c2nn(Cc4cccc(Cl)c4)cc2CC3)c1,"inconclusive: 44.7 µM [activator, single point]",
COC(=O)C1=C(C)OC(N)=C(C#N)C1c1ccsc1 (configuration not stated),,inconclusive: 69% [activator]
Cn1cnnc1SCC(=O)Nc1ccc2nc(SCc3ccccc3Cl)sc2c1,"inconclusive: 50.1 µM [activator, partial curve, poor fit]",
CCOC(=O)C1(C)CCN1C(=O)/C=C/c1ccccc1 (configuration not stated),,inactive: -25.5%
NC(=O)Cc1nc(-c2ccc(F)cc2)cs1,,inactive: 10.4%
CCOC(=O)C1CCCN(S(=O)(=O)c2cc3c4c(c2)CC(=O)N4CCC3)C1 (configuration not stated),"inconclusive: 11.2 µM [activator, partial curve, poor fit]",
CCCCCc1ccc(-c2nnc(N)s2)cc1,,inactive: 13.3%
Fc1ccc(-n2cc(-c3ccccc3)c3c(NCCc4ccccc4)ncnc32)cc1,,inactive: 32.7%
CCC(C)(C)NC(=O)C1CCN(S(=O)(=O)c2c(C)noc2/C=C/c2ccc(C)cc2)CC1,,inactive: 18%
Cc1nn(Cc2ccccc2)c(C)c1C(=O)OCC(=O)c1cc(C)n(CC(F)(F)F)c1C,"inconclusive: 28.2 µM [activator, partial curve, poor fit]",
CC(=O)Nc1cc(-c2ccc(F)cc2)cn2c(-c3ccc(S(C)(=O)=O)cc3)cnc12,"inconclusive: 50.1 µM [activator, single point]",
CCOc1ccc(OCC)c(NS(=O)(=O)c2c(C(=O)N3CCCCCC3)c(C)n(C)c2C)c1,"inconclusive: 28.2 µM [activator, partial curve, poor fit]",
Cc1ccc(CN(C)C(=O)CN2C(=O)NC(c3ccccc3)(c3ccccc3)C2=O)c(C)c1,"inconclusive: 20 µM [activator, partial curve, poor fit]",
COc1ccccc1-c1cccc(-c2nc(C(=O)Nc3nccs3)cc3c2[C@@H](CCO)N(C(C)=O)C3)c1,"inconclusive: 50.1 µM [activator, single point]",
CC(=O)Nc1ccc(C(=O)OCC(=O)c2ccc(S(=O)(=O)N3CCCCC3)cc2)cc1,active: 7.94 µM,
